Laboratory results reported in the supplement of paper PMC7826260.
Some of the results follow. One pool of 16,384 single-stranded DNAs met each Rep nickase domain in vitro for 1 h at 37 °C with 3 µM enzyme; only the middle of the 90-letter strands is printed. Values are log2 of uncut reads against the no-enzyme pool; the lower, the more was cut; hits are not called. Because reads are shares of a total, they shift together, so uncut sequences can rise above 0 when many others are cut.

Columns and labels:
Assay in all cases: uncleaved DNA left, log2 of reads against the no-enzyme library (log2 ratio); higher = less cleavage (more negative = more Rep cleavage of the k-mer); sequences stand for … in CTCGTCCG…ACCGGAGA
[1] = system: T1, Rep nickase domain of Muscovy duck circovirus
T1 sequence (residues 1-111 of Rep, tag left off): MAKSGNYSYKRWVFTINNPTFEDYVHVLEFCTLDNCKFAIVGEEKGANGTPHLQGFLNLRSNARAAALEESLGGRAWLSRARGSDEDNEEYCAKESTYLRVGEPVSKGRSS
Protocol: (§1)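 A pool of 90-nt single-stranded DNAs with seven random bases just before the constant AC of the nick site (name = the seven bases) was cut by 3 µM recombinant His6-SUMO-tagged Rep nickase domain (300 nM DNA, 50 mM HEPES pH 8.0, 50 mM NaCl, 1 mM MnCl2, 1 h, 37 °C, three replicates). Uncut DNA was amplified and sequenced.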

[2] = system: T2, Rep nickase domain of banana bunchy top virus
T2 sequence (residues 1-94 of Rep, tag left off): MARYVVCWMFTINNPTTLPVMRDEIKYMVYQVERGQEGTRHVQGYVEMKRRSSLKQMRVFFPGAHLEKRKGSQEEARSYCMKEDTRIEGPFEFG
Protocol: as §1

[3] = system: T3, Rep nickase domain of cabbage leaf curl virus
T3 sequence (residues 1-116 of Rep, tag left off): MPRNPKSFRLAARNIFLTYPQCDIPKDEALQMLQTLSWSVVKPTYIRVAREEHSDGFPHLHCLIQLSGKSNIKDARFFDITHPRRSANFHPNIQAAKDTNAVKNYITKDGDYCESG
Protocol: as §1

[4] = system: T4, Rep nickase domain of chickpea chlorotic dwarf virus
T4 sequence (residues 1-124 of Rep, tag left off): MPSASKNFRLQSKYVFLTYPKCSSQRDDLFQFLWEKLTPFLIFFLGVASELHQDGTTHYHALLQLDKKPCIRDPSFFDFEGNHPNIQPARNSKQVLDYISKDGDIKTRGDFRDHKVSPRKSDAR
Protocol: as §1

[5] = system: T5, Rep nickase domain of faba bean necrotic yellows virus
T5 sequence (residues 1-98 of Rep, tag left off): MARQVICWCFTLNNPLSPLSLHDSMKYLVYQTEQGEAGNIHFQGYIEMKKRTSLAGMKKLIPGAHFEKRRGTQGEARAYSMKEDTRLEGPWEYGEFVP
Protocol: as §1

[6] = system: T6, Rep nickase domain of maize striate mosaic virus
T6 sequence (residues 1-117 of Rep, tag left off): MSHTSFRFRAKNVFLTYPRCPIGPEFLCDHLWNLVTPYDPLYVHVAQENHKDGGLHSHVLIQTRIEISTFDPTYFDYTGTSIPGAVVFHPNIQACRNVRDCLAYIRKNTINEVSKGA
Protocol: as §1

[7] = system: T7, Rep nickase domain of porcine circovirus 2
T7 sequence (residues 2-116 of Rep, tag left off): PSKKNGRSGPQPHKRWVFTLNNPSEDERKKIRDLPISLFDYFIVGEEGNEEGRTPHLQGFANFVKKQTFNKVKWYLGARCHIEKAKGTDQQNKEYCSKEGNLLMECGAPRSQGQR
Protocol: as §1

[8] = system: T8, Rep nickase domain of tomato golden mosaic virus
T8 sequence (residues 1-124 of Rep, tag left off): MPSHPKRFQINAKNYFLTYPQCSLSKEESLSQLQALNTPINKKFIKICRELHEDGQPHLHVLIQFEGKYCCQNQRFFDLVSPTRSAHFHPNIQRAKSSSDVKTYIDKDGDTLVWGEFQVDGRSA
Protocol: as §1

[9] = system: T9, Rep nickase domain of tomato yellow leaf curl virus
T9 sequence (residues 1-136 of Rep, tag left off): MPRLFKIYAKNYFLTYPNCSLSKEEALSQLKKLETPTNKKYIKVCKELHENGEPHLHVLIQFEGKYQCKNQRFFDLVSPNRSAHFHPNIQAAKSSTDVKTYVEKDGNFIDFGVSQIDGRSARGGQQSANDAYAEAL
Protocol: as §1

[10] = system: T10, Rep nickase domain of wheat dwarf virus
T10 sequence (residues 1-137 of Rep, tag left off): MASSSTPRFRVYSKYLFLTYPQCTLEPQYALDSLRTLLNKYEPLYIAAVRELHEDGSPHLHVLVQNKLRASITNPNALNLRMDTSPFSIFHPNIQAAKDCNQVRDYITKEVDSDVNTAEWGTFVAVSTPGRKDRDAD
Protocol: as §1

Sequence	uncleaved DNA left (log2) [1]	uncleaved DNA left (log2) [2]	uncleaved DNA left (log2) [3]	uncleaved DNA left (log2) [4]	uncleaved DNA left (log2) [5]	uncleaved DNA left (log2) [6]	uncleaved DNA left (log2) [7]	uncleaved DNA left (log2) [8]	uncleaved DNA left (log2) [9]	uncleaved DNA left (log2) [10]
TGTTCTC	-0.137	0.0384	0.296	0.601	-0.0204	1.11	0.000461	0.0286	0.104	0.0974
ACTGAGT	0.127	0.0352	0.0391	0.0114	0.0799	-0.504	-0.0111	0.12	0.109	0.0313
ACGACAG	0.0542	0.11	-0.0995	0.216	0.0679	-0.0322	0.172	0.187	0.142	0.124
AGAGACT	0.0187	0.0954	-0.00975	0.797	0.0293	1.68	0.0353	0.0515	-0.0752	0.129
ATTATTC	0.129	0.0714	-0.00838	-0.0315	0.0551	-0.879	0.0872	0.0185	-0.0904	-0.0263
AGTGAAT	-0.0552	-0.0736	0.158	0.694	-0.103	1.45	-1.31	0.0725	-0.125	-0.0337
CATGGGT	0.0574	0.0469	0.13	1.16	0.0117	1.27	0.13	0.137	-0.0324	0.0748
GGCTGGG	-0.0123	-0.0761	0.0127	0.225	0.0559	0.00262	0.116	0.124	0.0171	-0.023
GTTCCGC	0.0635	0.0946	0.211	0.658	-0.0269	0.559	0.0814	0.0557	0.0815	0.185
AGGGCTA	0.00303	0.0401	0.271	0.87	0.122	1.4	0.157	0.0875	-0.0408	0.114
CGCCGAG	0.162	0.162	0.825	1.35	0.0785	0.94	0.0731	0.0815	0.157	0.269
ACGAATG	-0.108	0.103	-0.0793	0.497	0.0751	0.807	0.135	-0.0411	-0.157	-0.0831
AGGCCTG	0.0537	0.00297	0.263	0.893	-0.0918	1.7	0.248	0.161	-0.0677	0.00566
AAATAAT	-4.09	-1.13	-4.16	-3.59	-0.314	-3.4	-4.13	-3.83	-1.1	-3.97
GATTTCG	-0.0784	0.0128	-0.804	-0.0983	0.00914	-0.886	0.0784	-0.173	-0.00953	-0.224
TGTAAGG	0.0619	-0.0597	0.387	1.18	-0.0378	1.52	0.00699	0.000891	-0.127	-0.0318
GCGCGTC	-0.0326	-0.118	-0.144	-0.215	-0.051	-0.317	0.082	0.107	-0.0493	-0.074
CTAGCAT	-0.067	0.0477	-0.0145	-0.305	0.0044	-0.556	0.0253	-0.00484	-0.0559	0.0304
CCTCGAT	4.67e-05	-0.0842	0.204	1.01	-0.0843	1.28	0.0414	-0.0134	-0.262	-0.177
CTTATTG	-0.0387	0.0537	-0.589	-0.532	-0.0178	-1.23	0.132	-0.0541	0.0513	-0.0723
TTGTTTA	-0.0607	-0.172	0.093	-0.767	-0.17	-0.157	-0.3	-0.033	-0.0723	-0.0831
GTAATCG	0.0876	0.11	-0.597	-0.521	0.172	-0.845	0.235	0.157	0.099	-0.00327
GTGGAGG	0.0661	-0.0148	0.563	1.2	-0.0186	1.47	0.156	0.141	0.0256	-0.00716
AGCTGAC	0.0776	0.00492	-0.0539	0.838	-0.0277	0.177	0.205	0.0374	-0.00709	-0.142
AGGACCA	0.0267	0.121	0.42	1.01	-0.00841	1.55	0.0825	0.0752	0.0237	0.162
ATTCCCC	-1.59	-0.213	-0.00521	-0.177	-0.153	-0.309	-2.6	-0.0996	-0.0857	0.0617
GGGACCG	0.0286	0.181	0.826	1.92	-0.0512	2.16	0.303	0.0711	0.00996	0.187
GACCGCT	-0.00521	0.0052	-0.19	-0.984	-0.00709	-0.296	-0.0578	0.0771	0.0369	-0.0625
AAAACTT	-0.447	-0.361	-3.26	-2.96	0.11	-1.36	-3.13	-1.31	0.0931	-2.45
ATGATTA	-0.111	-0.058	-0.323	-1.28	0.095	-0.602	-0.0992	0.0447	-0.0769	-0.0644
